# Reference: the supplement of paper PMC8728848
# The list shows a part of the results.
# B1: Cp ZmpB (Clostridium perfringens), Q0TR08 (protein)
# chain: MNKRKIAAIILATMITNLSATTIDVLAQELNTKNNSKVEVSHDDESHQARVSKFDLYNSDKLDAYNQEFQVSRSNIKSINNNGGKYNSSTIDKAIDGNLETHWETGKPNDANFTNEVVVTFNEITNIDRIVYSARRDSARGKGFAKEFEIYASLKDEGDDFNLVSSGEYTESTRDLVEIKFNPTDFKRLKFKFKKADQNWASAAEFMFYKEDKLNEKFNGLFTDSSMNKVSEEFNTLEKLNAFENELKDHPIYDLYKEGLNNARAILTETSENPTKATLGQITYNLNDDYNNQYRMPYKNIKAIKNNGRHYAAQNIEKAIDNDVNTYWETGTLNSSSFNNEVEVEFNDLVTLDRIVYGSRQSDLKGFAEEVYIYASRTSKGDTYKLVATGAHEATKGLVEAKFEPTEFKRVKFKFKKSKQNSATLNELMFYKPDEVYSSIPKLFTDGTMSELSEEFNSLEKINAFKEKAKNHPLYNDFNETIELAESLISNPRKEDVLELEMRGDSISEAKKRKVWNFQDWQITGLSARAGDKITVYVDVAEGDPTPTLLYKQSLTQHGGATSFQLKPGKNEITIPEINYESNGIPKDVIQGGDLFFTNYKSDSQKRAPKVRIEGASKYPVFILGKSDENEVMKELEAYVEKIKAEPKTTPNIFAVSSNKSLEFVQATYALDWYKKNNKTPKYTAEQWDQYIADAMGFWGFDNSKDVNSDFNFRIMPMVKNLSGGAFMNAGNGVIGIRPGNQDAILAANKGWGVAHELGHNFDTGGRTIVEVTNNMMPLFFESKYKTKTRITDQNIWENNTYPKVGLDDYSNNELYNKADSTHLAQLAPLWQLYLYDNTFYGKFERQFRERDFGNKNREDIYKSWVVAASDAMELDLTEFFARHGIRVDDKVKEDLAKYPKPDKKIYYLNDLAMNYKGDGFTENAKVSVSTSGSNGNIKLSFSVDDENKDNILGYEIRRDGKYVGFTSNDSFVDTKSNLDEDGVYVVTPYDRKLNTLNPIEVNALQPTLSVNPVITLALGEEFNEEEYIVAKDIKGNSLSESVKVKSSNVNTSKVGEYEVLYSLEDSKGNEYTKTSKVNVVSRKEYMSDLTPKQSSNGWGTVRKDKSISGGVIGLTRDGDFVDYNKGLGLHSNAEYVYDLEGKDYDYFESYVGVDKAMSSRPASSVIFKVLVDGEEKFNSGVMRSTTPQKYVKVDVKNAKELKLIVNDAGDGDSSDHASFGDAKLATLSSKPIIKGENLAYSMDEKVDLMKGITATDIEDGNITSKVQIKSSDFVEGKSGIFTVVYSVTDSDGLTSECSRTIAVTDKETQLSDLNWKSATIGSGSVRKDRAVSGNQIRLLNEDNSVETFAKGIGTHSYSEIVYNSEGYDIFDTWVGIDRHVADKKVSSVKFKVYVDGELKAETDVMRIDTPKKRLVVDVRNSKEIKLVVDVADNGNNWDHADWADAKFRNLAEYDASELNKAIEEAKKLDLNNYTEESSEALKNAISKGEEALLSKDKETINSALEELNKEMNSLVKVDLNAVINIPDKYLLKSIQNQLNKTGDITLGDMYSLTTLTLSGVEDLTGLENAKNLETLNMDYNEVKDLRPLSKLKKLNTLNAQEQFIAAGELKPSNGKVIGDSKVYNREGKNVAKTIRVVDKNGNTILEQDAKDEFTINTKDLSSGLYGVHVLFEDEGFSGVMFYLFNV
# Tests used:
# Assay in all cases: glycan array binding signal (z-score within array); higher = stronger binding
# Details in all cases: glycan notation: IUPAC condensed, linker removed
# [1] = biological target: Gal(b1-3)GlcNAc(b1-6)GalNAc
# Procedure, shortened: (§1)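 Glycan array binding is given as a within-array Z-score, which can be read as non-binding when negative. The arrays, 3228 of them, came from the Consortium for Functional Glycomics database and were retained only where the protein sequence was available. Z-scores were averaged across arrays of the same protein sequence at different concentrations or buffers and across linkers.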
# [2] = biological target: Gal(b1-3)GlcNAc(b1-6)[Gal(b1-3)]GalNAc
# Procedure, shortened: as §1
# Gal(b1-3)GlcNAc6S = biological target: Gal(b1-3)GlcNAc6S
# Procedure, shortened: as §1
# [3] = biological target: Gal(b1-3)[Fuc(a1-4)]GlcNAc
# Procedure, shortened: as §1
# [4] = biological target: Gal(b1-3)[Fuc(a1-4)]GlcNAc(b1-2)Man
# Procedure, shortened: as §1
# [5] = biological target: Gal(b1-3)[Fuc(a1-4)]GlcNAc(b1-2)Man(a1-3)[Gal(b1-3)[Fuc(a1-4)]GlcNAc(b1-2)Man(a1-6)]Man(b1-4)GlcNAc(b1-4)[Fuc(a1-6)]GlcNAc
# Procedure, shortened: as §1
# [6] = biological target: Gal(b1-3)[Fuc(a1-4)]GlcNAc(b1-3)Gal(b1-3)[Fuc(a1-4)]GlcNAc
# Procedure, shortened: as §1
# [7] = biological target: Gal(b1-3)[Fuc(a1-4)]GlcNAc(b1-3)Gal(b1-4)[Fuc(a1-3)]GlcNAc
# Procedure, shortened: as §1
# [8] = biological target: Gal(b1-3)[Fuc(a1-4)]GlcNAc(b1-6)GalNAc
# Procedure, shortened: as §1
# [9] = biological target: Gal(b1-3)[GlcNAc(b1-6)]GalNAc
# Procedure, shortened: as §1
# [10] = biological target: Gal(b1-3)[Neu5Ac(a2-6)]GalNAc
# Procedure, shortened: as §1
# [11] = biological target: Gal(b1-3)[Neu5Ac(a2-6)]GlcNAc(b1-4)Gal(b1-4)Glc
# Procedure, shortened: as §1
# [12] = biological target: Gal(b1-3)[Neu5Ac(b2-6)]GalNAc
# Procedure, shortened: as §1
# Gal(b1-4)Gal = biological target: Gal(b1-4)Gal
# Procedure, shortened: as §1
# [13] = biological target: Gal(b1-4)GalNAc(a1-3)[Fuc(a1-2)]Gal(b1-4)GlcNAc
# Procedure, shortened: as §1
# [14] = biological target: Gal(b1-4)GalNAc(b1-3)[Fuc(a1-2)]Gal(b1-4)GlcNAc
# Procedure, shortened: as §1
# Gal(b1-4)Glc = biological target: Gal(b1-4)Glc
# Procedure, shortened: as §1
# Gal(b1-4)Glc6S = biological target: Gal(b1-4)Glc6S
# Procedure, shortened: as §1
# Gal(b1-4)GlcNAc = biological target: Gal(b1-4)GlcNAc
# Procedure, shortened: as §1
# [15] = biological target: Gal(b1-4)GlcNAc(a1-6)Gal(b1-4)GlcNAc
# Procedure, shortened: as §1
# Gal(b1-4)GlcNAc(b1-2)Man = biological target: Gal(b1-4)GlcNAc(b1-2)Man
# Procedure, shortened: as §1
# [16] = biological target: Gal(b1-4)GlcNAc(b1-2)Man(a1-3)Man(b1-4)GlcNAc(b1-4)GlcNAc
# Procedure, shortened: as §1
binder,measurement,setting,value
B1,glycan array binding signal (z-score),[1],-0.228
same,glycan array binding signal (z-score),[2],0.823
same,glycan array binding signal (z-score),Gal(b1-3)GlcNAc6S,-0.065
same,glycan array binding signal (z-score),[3],-0.339
same,glycan array binding signal (z-score),[4],0.248
same,glycan array binding signal (z-score),[5],0.786
same,glycan array binding signal (z-score),[6],-0.285
same,glycan array binding signal (z-score),[7],-0.183
same,glycan array binding signal (z-score),[8],0.124
same,glycan array binding signal (z-score),[9],-0.284
same,glycan array binding signal (z-score),[10],-0.329
same,glycan array binding signal (z-score),[11],-0.24
same,glycan array binding signal (z-score),[12],0.169
same,glycan array binding signal (z-score),Gal(b1-4)Gal,-0.237
same,glycan array binding signal (z-score),[13],0.022
same,glycan array binding signal (z-score),[14],0.022
same,glycan array binding signal (z-score),Gal(b1-4)Glc,-0.296
same,glycan array binding signal (z-score),Gal(b1-4)Glc6S,0.099
same,glycan array binding signal (z-score),Gal(b1-4)GlcNAc,-0.328
same,glycan array binding signal (z-score),[15],-0.191
same,glycan array binding signal (z-score),Gal(b1-4)GlcNAc(b1-2)Man,0.161
same,glycan array binding signal (z-score),[16],0.279
